Experimental data: publication PMC8639986, “Regulation of the EphA2 receptor intracellular region by phosphomimetic negative charges in the kinase-SAM linker” (Nature Communications, 2021)

B1: full-length EphA2 5A (S892A/S897A/T898A/S899A/S901A) labeled at the C-terminus with mTurquoise or EYFP (receptor, human)
chain: [about 500 residues not given here]IGGVAVGVVLLLVLAGVGFFIHRRRKNQRARQSPEDVYFSKSEQLKPLKTYVDPHTYEDPNQAVLKFTTEIHPSCVTRQKVIGAGEFGEVYKGMLKTSSGKKEVPVAIKTLKAGYTEKQRVDFLGEAGIMGQFSHHNIIRLEGVISKYKPMMIITEYMENGALDKFLREKDGEFSVLQLVGMLRGIAAGMKYLANMNYVHRDLAARNILVNSNLVCKVSDFGLSRVLEDDPEATYTTSGGKIPIRWTAPEAISYRKFTSASDVWSFGIVMWEVMTYGERPYWELSNHEVMKAINDGFRLPTPMDCPSAIYQLMMQCWQQERARRPKFADIVSILDKLIRAPDSLKTLADFDPRVAIRLPAAAGAEGVPFRTVSEWLESIKMQQYTEHFMAAGYTAIEKVVQMTNDDIKRIGVRLPGHQKRIAYSLLGLKDQVNTVGIPI
notes: EphA2 (ephrin type-A receptor 2), full length, five kinase-SAM linker phosphosites replaced by alanine; Both mTurquoise and EYFP forms were co-transfected for FRET; Only the EYFP form was used for FIF; also called EphA2 5A-EYFP; source: HEK293T, transiently transfected (pcDNA3), in the plasma membrane of live cells; not shown: mTurquoise or EYFP attached via a flexible linker (GGS)5, C-terminal, …
B2: full-length EphA2 5E (S892E/S897E/T898E/S899E/S901E) labeled at the C-terminus with mTurquoise or EYFP (receptor, human)
chain: [about 500 residues not given here]IGGVAVGVVLLLVLAGVGFFIHRRRKNQRARQSPEDVYFSKSEQLKPLKTYVDPHTYEDPNQAVLKFTTEIHPSCVTRQKVIGAGEFGEVYKGMLKTSSGKKEVPVAIKTLKAGYTEKQRVDFLGEAGIMGQFSHHNIIRLEGVISKYKPMMIITEYMENGALDKFLREKDGEFSVLQLVGMLRGIAAGMKYLANMNYVHRDLAARNILVNSNLVCKVSDFGLSRVLEDDPEATYTTSGGKIPIRWTAPEAISYRKFTSASDVWSFGIVMWEVMTYGERPYWELSNHEVMKAINDGFRLPTPMDCPSAIYQLMMQCWQQERARRPKFADIVSILDKLIRAPDSLKTLADFDPRVEIRLPEEEGEEGVPFRTVSEWLESIKMQQYTEHFMAAGYTAIEKVVQMTNDDIKRIGVRLPGHQKRIAYSLLGLKDQVNTVGIPI
notes: EphA2 (ephrin type-A receptor 2), full length, five kinase-SAM linker phosphosites replaced by glutamic acid; Both mTurquoise and EYFP forms were co-transfected for FRET; Only the EYFP form was used for FIF; also called EphA2 5E-EYFP; source: HEK293T, transiently transfected (pcDNA3), in the plasma membrane of live cells; not shown: mTurquoise or EYFP attached via a flexible linker (GGS)5, …

Experiments:
[1] = target: the molecule itself; experiment: fluorescence intensity fluctuation (FIF); molecular brightness distributions of EphA2-EYFP in the plasma membrane of HEK293T cells, no ligand; compared with published monomer (LAT) and dimer (E-cadherin) controls
[2] = target: the molecule itself; experiment: fluorescence intensity fluctuation (FIF); molecular brightness distributions of EphA2-EYFP in the plasma membrane of HEK293T cells treated with 5.5 nM (saturating) ephrinA1-Fc; compared with published monomer (LAT) and dimer (E-cadherin) controls

| Protein | stoichiometry N [1] | stoichiometry N [2] |
| --- | --- | --- |
| B1 | 2 |  |
| B2 | 2 | > 2 |
